In all, about 310,000 compounds went through this assay and about 14,000 (4.5%) showed an effect of 50% or more. The effect is printed as a negative number. The list shows a part of the results.
Target: human ether-à-go-go-related gene (hERG) potassium channel (human, UniProt Q12809)
Assay: primary screen, population patch clamp on CHO cells stably expressing hERG
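Note: peak tail current of the secondary pulse compared with the same well before compound.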

Sequence of human ether-à-go-go-related gene (hERG) potassium channel (Q12809 whole entry, looked up): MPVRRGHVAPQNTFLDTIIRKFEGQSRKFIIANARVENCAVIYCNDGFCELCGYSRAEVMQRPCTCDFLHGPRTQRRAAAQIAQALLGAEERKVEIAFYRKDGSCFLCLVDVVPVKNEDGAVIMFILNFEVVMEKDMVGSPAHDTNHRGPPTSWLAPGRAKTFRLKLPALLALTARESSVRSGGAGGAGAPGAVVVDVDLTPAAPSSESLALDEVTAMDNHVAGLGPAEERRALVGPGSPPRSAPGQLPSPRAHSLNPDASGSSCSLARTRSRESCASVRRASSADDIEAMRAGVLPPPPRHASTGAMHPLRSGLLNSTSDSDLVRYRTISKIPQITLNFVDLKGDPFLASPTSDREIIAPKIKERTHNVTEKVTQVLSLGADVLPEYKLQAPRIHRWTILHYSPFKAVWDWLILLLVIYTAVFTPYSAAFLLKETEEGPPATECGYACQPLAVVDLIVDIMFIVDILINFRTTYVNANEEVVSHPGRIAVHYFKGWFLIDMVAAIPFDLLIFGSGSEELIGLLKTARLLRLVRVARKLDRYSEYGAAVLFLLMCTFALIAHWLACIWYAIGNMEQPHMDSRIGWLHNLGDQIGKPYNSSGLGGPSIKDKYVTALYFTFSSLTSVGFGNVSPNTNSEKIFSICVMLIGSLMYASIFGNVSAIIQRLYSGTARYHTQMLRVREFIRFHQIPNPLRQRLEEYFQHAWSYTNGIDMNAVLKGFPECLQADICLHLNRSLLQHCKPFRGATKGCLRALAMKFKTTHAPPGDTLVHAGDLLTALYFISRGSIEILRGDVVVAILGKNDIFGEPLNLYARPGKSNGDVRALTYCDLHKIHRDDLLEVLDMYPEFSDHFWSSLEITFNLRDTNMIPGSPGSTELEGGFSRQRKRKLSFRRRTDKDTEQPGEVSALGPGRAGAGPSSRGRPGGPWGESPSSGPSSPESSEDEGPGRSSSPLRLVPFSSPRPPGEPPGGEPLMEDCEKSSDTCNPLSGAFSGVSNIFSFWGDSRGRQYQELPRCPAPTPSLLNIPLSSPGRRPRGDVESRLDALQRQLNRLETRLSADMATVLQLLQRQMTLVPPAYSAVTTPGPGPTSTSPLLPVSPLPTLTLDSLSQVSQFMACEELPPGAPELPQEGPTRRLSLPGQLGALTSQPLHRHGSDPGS

Question: `O=C(O)CCC(=O)Nc1nc2ccc([N+](=O)[O-])cc2s1` was tested. Which “hERG current change (%, negative = inhibition) at 10uM” value did it give?
Answer: The value was 12%.

Question: For `O=C(NNC(=O)c1ccncc1)c1ccncc1`, which “hERG current change (%, negative = inhibition) at 10uM” value is on record?
Answer: Its value is 21.9%.

Question: `COc1ccc(NC(=O)NCCN2CCc3ccccc3C2)cc1` was tested. Which “hERG current change (%, negative = inhibition) at 10uM” value did it give?
Answer: Its value is -34.6%.

Question: With `Cn1c(=O)oc2cc(S(=O)(=O)NC(Cc3ccccc3)C(=O)N3CCCCC3)ccc21` (stereo not drawn) as the molecule, how does the “hERG current change (%, negative = inhibition) at 10uM” value read?
Answer: The value was 16.8%.

Question: With `CCCCOCC(O)CN1CCN(C(C)=O)CC1.O=C(O)C(=O)O` (stereo not drawn) as the molecule, how does the “hERG current change (%, negative = inhibition) at 10uM” value read?
Answer: The value was -2.05%.

Question: `CC1CCCN(C(=O)CCNS(=O)(=O)c2ccc3c(c2)c(=O)n(C)c(=O)n3C)C1` (stereo not drawn) was tested. Which “hERG current change (%, negative = inhibition) at 10uM” value did it give?
Answer: Its value is -6.89%.

Question: `COc1ccccc1N1CCN(C2CCCN(C(=O)c3ccsc3)C2)CC1` (stereo not drawn) was tested. Which “hERG current change (%, negative = inhibition) at 10uM” value did it give?
Answer: The value was -47.1%.

Question: With `O=C(/C=C/c1cc([N+](=O)[O-])ccc1OC(F)F)Nc1cccc2ccccc12` as the molecule, how does the “hERG current change (%, negative = inhibition) at 10uM” value read?
Answer: The value was 7.25%.

Question: Which “hERG current change (%, negative = inhibition) at 10uM” value does the source give for `Cc1c(C(=O)NCc2ccccc2)cnn1-c1ccccc1` here?
Answer: The value was -2.6%.

Question: With `CCOc1ccc(N2C(=O)CC(NCC3CCCO3)C2=O)cc1` (stereo not drawn) as the molecule, how does the “hERG current change (%, negative = inhibition) at 10uM” value read?
Answer: Its value is 2.22%.

Question: For `COc1cc(C(C)=O)ccc1OCC(=O)OCCCOC(=O)COc1ccc(C(C)=O)cc1OC`, which “hERG current change (%, negative = inhibition) at 10uM” value is on record?
Answer: Its value is 17.7%.

Question: Which “hERG current change (%, negative = inhibition) at 10uM” value does the source give for `COc1ccccc1OCC(=O)Nc1nnc(C2CCCC2)s1` here?
Answer: Its value is 8.21%.

Question: Which “hERG current change (%, negative = inhibition) at 10uM” value does the source give for `CC(=O)Nc1ccc(S(=O)(=O)N2CCN(C(=O)N3CCOCC3)CC2)cc1` here?
Answer: The value was 8.32%.

Question: For `CCOC(=O)c1ccccc1NC(=O)CSc1ccc(-c2cccnc2)nn1`, which “hERG current change (%, negative = inhibition) at 10uM” value is on record?
Answer: The value was -33.5%.

Question: With `Cc1ccc(CN2CCNC(=O)C2CC(=O)NCc2csc(C(C)C)n2)cc1` (stereo not drawn) as the molecule, how does the “hERG current change (%, negative = inhibition) at 10uM” value read?
Answer: Its value is -8.31%.

Question: `CCCCN(C(=O)CSCc1ccc(C)cc1)c1c(N)n(CCC)c(=O)[nH]c1=O` was tested. Which “hERG current change (%, negative = inhibition) at 10uM” value did it give?
Answer: The value was -6.45%.

Question: For `CC(C)c1ccccc1NC(=O)COC(=O)c1cc([N+](=O)[O-])ccc1N1CCOCC1`, which “hERG current change (%, negative = inhibition) at 10uM” value is on record?
Answer: The value was -27.2%.

Question: How did the “hERG current change (%, negative = inhibition) at 10uM” value turn out when `COc1ccc2cc(C(=O)N3CCCC(Nc4ccc(F)cc4)C3)n(C)c2c1` (stereo not drawn) was run?
Answer: The value was -6.47%.

Question: With `O=C1NC(=O)/C(=C/c2ccc(OS(=O)(=O)c3ccc(F)cc3F)cc2)N1` as the molecule, how does the “hERG current change (%, negative = inhibition) at 10uM” value read?
Answer: Its value is 10%.

Question: How did the “hERG current change (%, negative = inhibition) at 10uM” value turn out when `CN1CCC(N(C)C(=O)c2cc(=O)c3ccccc3o2)CC1` was run?
Answer: Its value is 11.5%.

Question: How did the “hERG current change (%, negative = inhibition) at 10uM” value turn out when `COc1cc(-c2nnc(CSc3nnc4nc(C)cc(C)n34)o2)cc(OC)c1OC` was run?
Answer: The value was 6.67%.

Question: `CCOC(=O)CNC(=O)CSc1nc2nc(C)c(Br)cc2[nH]1` was tested. Which “hERG current change (%, negative = inhibition) at 10uM” value did it give?
Answer: The value was 5.05%.

Question: How did the “hERG current change (%, negative = inhibition) at 10uM” value turn out when `CC(c1ccon1)N(C)C(=O)c1ccc(OC2CCN(C(=O)C3CC3)CC2)cc1` (stereo not drawn) was run?
Answer: The value was -0.799%.

Question: Which “hERG current change (%, negative = inhibition) at 10uM” value does the source give for `CCOc1ccccc1N1CCN(C(=O)c2c(C)noc2C)CC1` here?
Answer: Its value is 1.78%.

Source: PMC4336329 (PLoS ONE, 2015)
